The values below come from PubChem BioAssay AID1508623 (National Center for Advancing Translational Sciences (NCATS), 2021).

The structures appear in SMILES notation. Among all 48,000 compounds or so, about 450 (0.94%) were called active. Not shown: some 19% with an inconclusive outcome. The call rests on the fitted dose curve; in most records, active means well fitted inhibition curve with a large enough effect; inconclusive means small, poorly fitted or top-dose-only effect; inactive means no such curve, though single readings can be large or run the other way. The list shows a part of the results.

A short description of this test: Primary qHTS for Identification of Small Molecule Inhibitors of Huntingtin Promoter Activity. Further: nearly all actives have a fitted effect of over 50% in size. The conditions noted are these: HEK293 HTT promoter firefly luciferase reporter (activity 0% = vehicle and -100% = no light), 24 h; series mostly up to 57.5 µM; activity change, negative = inhibition: at the top concentration. Put shortly: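 HEK293 luciferase promoter-reporter cells (2,500/well) plated 24 h, then compounds added at up to 57.5 uM final for 24 h at 37 °C. Firefly luminescence by Dual-Glo, normalized to vehicle (0%) and zero RLU (-100%).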
In the case of `CCOC(=O)c1c(NC(=O)c2cc3ccccc3c(=O)o2)sc2c1CCCC2`, the “activity change, negative = inhibition” value was inactive: -14.1%. The same measure for `COc1ccc(OC)c(NC(=O)CCc2c(C)nc3c(-c4ccccc4)c(C)nn3c2C)c1`: inactive: -28.9%; for `CCCN(CCC)CCNC(=O)c1cc(Sc2ccc(Cl)cc2)nc2ccccc12`: inactive: -6.71%; for `Cc1cccc(CSCCNC(=O)CN(c2ccccc2)S(=O)(=O)N(C)C)c1`: inactive: -26.2%.

For `Cc1ccc(S(=O)(=O)c2cn(CC(=O)Nc3ccc4c(c3)OCO4)c3ccc(F)cc3c2=O)cc1`, the “activity change, negative = inhibition” value is inactive: -9.13%. Turning to `Cc1cccc(Nc2nc3ccccc3n3c(N)nnc23)c1`, the “activity change, negative = inhibition” value is inactive: 11.6%. As to `Cc1cc2n(n1)CCCN2C(=O)Nc1cccc(C)c1C`, the “activity change, negative = inhibition” value is inactive: -9.69%. Regarding `Cc1ccc(Cn2c(=O)c3cccnc3n(Cc3ccc(F)cc3)c2=O)cc1`, the “activity change, negative = inhibition” value is inactive: -25.8%. The figure for `Cc1cccc(CNC(=O)c2ccc(Cn3c(SCc4ccccc4)nc4cccnc43)cc2)c1` is inactive: -15.8%; for `CCc1ccc2oc(C(=O)Nc3nc(-c4ccccc4)ns3)c(C)c2c1` it is inactive: 1.64%.

`Cc1ccc(OC(C)C(=O)NCC2(N3CCOCC3)CCCCC2)cc1C` (stereo unspecified): the “activity change, negative = inhibition” value is inactive: -24.2%.

Consider `Cc1c(C(=O)N(C)C)sc2c1c(=O)n(-c1ccc(F)cc1)c(=O)n2CC(=O)N(C)c1ccccc1`, for which the “activity change, negative = inhibition” value was inactive: -16.9%. With `COc1ccccc1CNC(=O)CCC1N=C2c3ccccc3N=C(SCC(=O)NCCc3ccccc3)N2C1=O` (stereo unspecified), the “activity change, negative = inhibition” value is inactive: -12.3%. For the molecule `COc1ccc(Cl)cc1NC(=O)c1nc(S(C)(=O)=O)ncc1N(Cc1ccc(C)cc1)Cc1ccco1`, the “activity change, negative = inhibition” value is inactive: -16.7%.

In the case of `Cc1cc2oc(C(=O)Nc3ccc(S(=O)(=O)Nc4onc(C)c4C)cc3)cc(=O)c2cc1C`, the “activity change, negative = inhibition” value was inactive: -17.8%. The same measure for `CCOc1ccc(-n2c(SC(C)C(=O)OC)nc3c([nH]c4ccccc43)c2=O)cc1` (stereo unspecified): inactive: -15.7%; for `NC[C@H](O)c1ccc(O)c(O)c1`: inactive: 6.64%; for `CCN(CC)CCNC(=O)c1ccc(N)cc1`: inactive: 10%.

As to `CCOC(=O)c1c(NC(=O)/C=C/c2ccc(OC)cc2)sc2c1CCC(C)C2` (stereo unspecified), the “activity change, negative = inhibition” value was inactive: -11.9%. Turning to `O=C(CSc1nc(=O)[nH]c2c1CCCC2)NCc1ccc(Cl)cc1`, the “activity change, negative = inhibition” value is inactive: -5.32%.

For the molecule `CCN(CCCNC(=O)c1cc2c(=O)[nH]c3ccc(C)cc3c2s1)Cc1ccccc1`, the “activity change, negative = inhibition” value is inactive: -20.9%. The same measure for `CCOC(=O)c1c(NC(=O)c2ccc(S(=O)(=O)N(C)C)cc2)sc2c1CCN(C)C2`: inactive: -1.18%.

On to `COc1ccc(NC(=O)Cn2c(=O)n(CC3CCCO3)c(=O)c3ccccc32)cc1` (stereo unspecified), for which the “activity change, negative = inhibition” value was inactive: -8.86%. As for `CCCCCCNc1ncnc2c1sc1nc(N3CCOCC3)c3c(c12)CCCC3`, the “activity change, negative = inhibition” value was inactive: -4.99%.

For `CCCCSCCCNC(=O)c1cc(-c2cccnc2)nc2ccc(S(=O)(=O)N3CCC(C)CC3)cc12`, the “activity change, negative = inhibition” value was inactive: -4.37%.

In the case of `O=C(Nc1cccc(C(=O)N2CCN(c3ccc(F)cc3)CC2)c1)c1nsc2ccccc12`, the “activity change, negative = inhibition” value is inactive: -9.97%. The figure for `Cc1oc2ccc(O)c(CN3CCN(Cc4ccccc4)CC3)c2c1C(=O)Nc1cccc(Cl)c1C` is inactive: 3.79%; for `CCCN(C(=O)c1nn(-c2ccc(C)cc2)c(=O)c2c1c1ccccc1n2C)c1ccccc1C` it is inactive: -20.5%. As to `CCOc1ccc(NC(=O)c2cnn3c(C(F)F)cc(-c4ccc(C)cc4)nc23)cc1`, the “activity change, negative = inhibition” value is inactive: -7.39%. Take `CC(=O)c1ccc(N2CCN(C(=O)Cn3ncc4c3-c3ccccc3OC4)CC2)cc1`: the “activity change, negative = inhibition” value is inactive: -37.9%. The same measure for `COc1ccccc1/C=C/c1nc(C#N)c(NC(C)c2ccccc2)o1` (stereo unspecified): inactive: -4.7%; for `Cc1c(Cl)cccc1NC(=O)CN1C(=O)CSc2ccc(S(=O)(=O)N3CCCC3)cc21`: inactive: -24.1%. For `CC(C)(C)C(=O)OCOC(=O)C1N2C(=O)CC2S(=O)(=O)C1(C)C` (stereo unspecified), the “activity change, negative = inhibition” value is inactive: 9.13%. The figure for `CCc1ccc(Sc2cc(C(=O)NCCCN3CCCC(C)C3)c3ccccc3n2)cc1` (stereo unspecified) is inactive: -15.1%; for `Cc1ccccc1CCNCc1c(C(=O)O)c(C)n(Cc2c(F)cccc2Cl)c1C` it is inactive: -13.7%. The same measure for `Cc1ccc(NC(=O)CN2CCN(C3CCCCC3)C(=O)C2=O)cc1`: inactive: -20.6%; for `O=c1cc(COc2cccc(C(F)(F)F)c2)nc2sc3c(n12)CCCC3`: inactive: -4.53%; for `Cc1ccc(-n2ncc(C(=O)N3CCN(C4CCCCC4)CC3)c2C2CCN(C(=O)OC(C)(C)C)CC2)cc1`: inactive: 8.59%. As to `CC(C)NC(=O)c1nn(C)c2c1CS(=O)(=O)c1ccccc1-2`, the “activity change, negative = inhibition” value was inactive: -0.983%.

Take `COC(=O)c1cc(Cl)ccc1NC(=O)Cn1c(C)cc(C)c(C#N)c1=O`: the “activity change, negative = inhibition” value was inactive: -7.23%.

In the case of `CC(=O)Nc1ccc2nc(SCc3ccccc3)sc2c1`, the “activity change, negative = inhibition” value was inactive: 29.8%. The same measure for `COc1ccccc1CNc1nc(-c2ccco2)nn1S(=O)(=O)c1ccc(C)cc1`: inactive: 30.7%; for `CCOc1ccccc1CN(CCc1ccc2c(c1)OCO2)Cc1cc(OC)c(OC)cc1OC`: inactive: -10.8%.

Turning to `CCn1c(=O)c2sccc2n2c(CCCC(=O)N3CCN(c4ccccc4OC)CC3)nnc12`, the “activity change, negative = inhibition” value is inactive: -17.3%.

In the case of `CCOC(=O)N1CCC(NC(=O)c2cnn(-c3cccc(C)c3)c2C2CCN(C(=O)OC(C)(C)C)CC2)CC1`, the “activity change, negative = inhibition” value was inactive: 4.75%. In the case of `COc1ccc(CNC(=O)C(=O)NCC(c2cccs2)S(=O)(=O)c2ccc(C)cc2)cc1` (stereo unspecified), the “activity change, negative = inhibition” value is inactive: -15.3%. Regarding `CCn1c(SCC(=O)Nc2cccc(Cl)c2)nnc1-c1nonc1NC(C)=O`, the “activity change, negative = inhibition” value is inactive: -18.2%. Turning to `Cc1ccc(-c2nsc(NC(=O)c3oc4cc(C)c(Cl)cc4c3C)n2)cc1`, the “activity change, negative = inhibition” value is inactive: -1.26%. With `COc1cc2[nH]c(=O)n(Cc3ccc(C(=O)N4CCN(c5cccc(C)c5C)CC4)cc3)c(=O)c2cc1OC`, the “activity change, negative = inhibition” value was inactive: -12.7%.

For `COc1ccc(CNC(=O)c2cc(Nc3ccc(OC)cc3OC)nc3ccccc23)cc1`, the “activity change, negative = inhibition” value was inactive: 16.6%. The same measure for `COc1ccc(CCNC(=O)Cn2nnc(-c3cccc(C(F)(F)F)c3)n2)cc1OC`: inactive: 16.6%. With `Cc1ccc(-n2nc(CO)c(C(=O)NCCO)n2)cc1`, the “activity change, negative = inhibition” value is inactive: 40.4%. Turning to `CCOc1ccc(NC(=O)c2oc3ccccc3c2NC(=O)Cc2ccc(OC)c(OC)c2)cc1`, the “activity change, negative = inhibition” value was inactive: 5.67%.

Turning to `O=C(Nc1ccc(O)c(-c2nc3ccccc3o2)c1)c1cccs1`, the “activity change, negative = inhibition” value is inactive: -10.3%. In the case of `Cc1ccc(C)c(CN2C(=O)c3ccccc3Sc3ccc(C(=O)NCCCOC(C)C)cc32)c1`, the “activity change, negative = inhibition” value is inactive: -17.1%. For `O=C(CSc1n[nH]c(-c2ccccc2Cl)n1)N1CCN(c2ccc(F)cc2)CC1`, the “activity change, negative = inhibition” value was inactive: -19.9%. Turning to `CCOC(=O)c1ccc(N2C(=O)c3n[nH]c(C)c3C2c2ccc(C(C)C)cc2)cc1` (stereo unspecified), the “activity change, negative = inhibition” value was inactive: 3.74%.

With `CC(C)c1nn2c(=O)cc(COC(=O)c3ccc(NC(=O)c4ccccc4Cl)cc3)nc2s1`, the “activity change, negative = inhibition” value is inactive: -11.7%. The figure for `CCC(Sc1nc2ncccc2[nH]1)C(=O)Nc1ccccc1F` (stereo unspecified) is inactive: -26%. For the molecule `COc1ccc2c(CNCc3cccs3)c(C(=O)O)n(Cc3ccccc3C)c2c1`, the “activity change, negative = inhibition” value was inactive: -2.68%.

As to `COc1cc(OC)c(N(C)C(=O)c2cc3c(s2)-c2ccccc2OC3)cc1Cl`, the “activity change, negative = inhibition” value is inactive: -21.4%.
